Test results taken from the supplement of paper PMC3334620.
Whole data set: some 33,000 sequences, median “E-score (-0.5 to 0.5)” near -0.017, cut for the highest 2% near 0.3. This is one part of the list.

Each sequence was assayed against T1, Sut1 (UniProt P53032) (assay: PBM E-score (8-mer binding enrichment) (E-score (-0.5 to 0.5)); higher = stronger / more preferred TF binding; most listed sequences are background and not binding sites). Settings: protein concentration: 200 nM; construct: GST-full length.
T1 sequence: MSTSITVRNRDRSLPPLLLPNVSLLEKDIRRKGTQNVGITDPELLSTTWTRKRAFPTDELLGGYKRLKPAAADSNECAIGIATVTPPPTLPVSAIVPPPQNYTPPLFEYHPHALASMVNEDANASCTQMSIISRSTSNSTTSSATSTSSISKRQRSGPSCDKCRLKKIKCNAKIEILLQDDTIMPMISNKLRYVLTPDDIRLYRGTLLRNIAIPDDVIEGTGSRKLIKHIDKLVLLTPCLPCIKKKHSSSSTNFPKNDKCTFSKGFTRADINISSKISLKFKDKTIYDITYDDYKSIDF
Procedure: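 Universal 'all 10-mer' protein binding microarrays (Agilent AMADID 015681) probed with GST-tagged S. cerevisiae TFs (full-length or DBD) made by in vitro transcription/translation (PURExpress), about 100-200 nM. Bound TF was detected with fluorescent anti-GST. Each ungapped 8-mer (which stands for itself and its reverse complement) is scored by the PBM enrichment score (E-score), a modified Wilcoxon-Mann-Whitney statistic from -0.5 to +0.5, computed with the Universal PBM Analysis Suite. Scale: above 0.35 generally sequence-specific binding.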

Row | Sequence | PBM E-score
1 | ATGGACCA | -0.0417
2 | GTGTGTTA | 0.123
3 | ATCCGTGC | 0.0778
4 | CGGCGGAA | 0.179
5 | AATCTAAT | 0.148
6 | CGCGCAAC | -0.114
7 | GCACTGAC | -0.129
8 | CATAGGAA | -0.0372
9 | GGCTATGA | -0.12
10 | TATTTGGA | -0.0115
11 | GAGGACCA | -0.165
12 | CCACGAGA | -0.186
13 | AGTCCTCC | -0.103
14 | CCCAGACA | -0.207
15 | ACACCAGT | -0.167
16 | AGAACCCA | -0.159
17 | CCCGATGC | 0.00652
18 | GCCCTGGA | -0.174
19 | ACACAAAC | 0.0833
20 | AACTCTTC | -0.0848
21 | TAAACGTA | 0.131
22 | ATCGCGTA | -0.0814
23 | ATAACGCC | 0.102
24 | ACTGTTCG | 0.0597
25 | ACGTGTGA | -0.154

Row | Sequence | PBM E-score
26 | AACCGGTG | 0.0206
27 | GAGAAACC | 0.0365
28 | CTATCCCA | -0.0943
29 | ACCTATGG | -0.108
30 | CCTCCTTA | -0.214
31 | AGTAATTA | 0.241
32 | AGACGAGG | -0.182
33 | TATTCACA | 0.214
34 | CGGGAATC | -0.0254
35 | GCTGGGCC | -0.172
36 | CACTCGCG | -0.152
37 | CTCGTACA | -0.0457
38 | TAGTTTGA | 0.152
39 | CTGGTTAA | 0.141
40 | CCTCTTAG | 0.252
41 | ATGTGGAA | 0.106
42 | GGAATAAC | 0.138
43 | GGCATCGA | -0.132
44 | CGGCCCAC | -0.185
45 | AATACACA | 0.162
46 | CCCTCCGC | -0.318
47 | CGGTCAAC | -0.0629
48 | GACAACCA | 0.0957
49 | CAACTGAG | -0.0543
50 | ACTTCAGA | 0.155

Row | Sequence | PBM E-score
51 | TAGCGCCA | -0.145
52 | GAAGCCGA | 0.146
53 | TAGGGATA | -0.0404
54 | AGACGCCG | -0.0346
55 | AGCGGCAG | -0.169
56 | CCAATCAG | -0.227
57 | CGTCACTA | -0.106
58 | ATGTACTA | 0.0492
59 | ACTAAGGC | -0.131
60 | ACCTTTAG | 0.0824
61 | CCGTGTTA | 0.0373
62 | AGAGTGTA | -0.154
63 | AAAGGTCT | 0.051
64 | ATAGAACA | 0.129
65 | CCTGTTAA | -0.0342
66 | ATTTCCCG | 0.214
67 | ACGCGGAT | 0.0724
68 | AAAGCGCT | 0.16
69 | ATCACGCA | 0.101
70 | TAGAGGAA | -0.127
71 | GTAGCGGA | 0.247
72 | ATTGGCAA | -0.0005
73 | CTGGTCGC | -0.201
74 | CGTCGGGA | 0.00562
75 | GACGCTGA | -0.19

Row | Sequence | PBM E-score
76 | GCCCCCGC | -0.317
77 | ACGGCCAT | -0.178
78 | GGTTACCA | -0.0179
79 | CGAGCAAC | 0.111
80 | TCCATGAA | 0.131
81 | GCTTGACA | 0.0631
82 | AACTGTGT | 0.101
83 | AGCAAGCA | -0.244
84 | CACCGCTA | 0.0717
85 | ATTGTTAA | 0.131
86 | CTGTTAAG | -0.0667
87 | GTCGATTA | 0.115
88 | TCACGTAA | -0.214
89 | CGGCCAAA | 0.121
90 | ACCCGGTC | -0.124
91 | ACTTATTC | 0.206
92 | AAGCTTCG | 0.0691
93 | AAGTTGAT | 0.157
94 | GAGGGTGC | -0.276
95 | CCGGCTTC | -0.0089
96 | CATAATCA | 0.231
97 | ACTGATGC | -0.0711
98 | AGTGTCTG | -0.134
99 | CCTCTCTC | -0.123
100 | CGCATGAC | -0.108

Row | Sequence | PBM E-score
101 | TCGTGCAA | 0.0886
102 | CTGGCCCA | -0.235
103 | AGGTGTCG | -0.123
104 | CATCAGGA | 0.124
105 | AGCCGCTA | -0.129
106 | AATCAAGC | -0.00086
107 | AGACACCC | -0.159
108 | CAACTTAC | 0.0196
109 | AATTAATA | 0.327
110 | GAGTGCGC | -0.109
111 | CGCTCCAG | -0.183
112 | ATCACGTG | -0.143
113 | ATAATATA | 0.301
114 | GGGAGGTA | -0.22
115 | TCAGAGCA | -0.241
116 | AAATTCCA | 0.241
117 | GCACGGCA | -0.0169
118 | ATATGATA | 0.186
119 | ACGCTGTG | -0.069
120 | ACAACAAC | 0.171
121 | ACTCAAAT | 0.0261
122 | GACTTAAC | -0.0138
123 | CTTTGCAA | 0.102
124 | GGCGCTAA | -0.173
125 | CCTCTCAG | -0.355

Row | Sequence | PBM E-score
126 | GACTCCGC | 0.429
127 | AGACGTTG | 0.0136
128 | ACCCGTTG | -0.287
129 | ACCGGAAC | 0.29
130 | AGGGTTGC | -0.139
131 | CAAGCGCC | -0.144
132 | CACAGGAC | -0.0824
133 | AGTAGTTC | 0.134
134 | ACCTAGAG | 0.0112
135 | GTCGGGCA | -0.287
136 | AAATCGAT | -0.137
137 | ACTTTAGG | -0.0588
138 | CCAGCCAC | -0.151
139 | CCCCGTAA | 0.0974
140 | GAGCCTAC | -0.129
141 | ATGAAACG | 0.0833
142 | ATTATTGA | 0.0438
143 | AAGAGAGG | -0.101
144 | GAAAAGTC | 0.195
145 | AGAATGCT | -0.0972
146 | AAATGTTG | -0.173
147 | TACATGGA | 0.04
148 | GTCCGGGA | 0.413
149 | ATAATTCC | 0.202
150 | CCAATATC | 0.0888

Row | Sequence | PBM E-score
151 | ATCTCACA | -0.00326
152 | ACCTACCC | -0.0933
153 | AGCAAAGC | -0.121
154 | TAACATTA | 0.208
155 | TGCGAAAA | 0.175
156 | CCTCACGA | -0.226
157 | ATTATATG | 0.134
158 | AGTGGCAG | -0.0973
159 | CACTTCGG | 0.0808
160 | GGTTCTCA | -0.0185
161 | CCCCGTAG | -0.109
162 | CTCAATGA | -0.0214
163 | CGTGCGAC | -0.237
164 | TAGGACCA | -0.108
165 | CATCCAAA | 0.0766
166 | AAGAAAGA | 0.228
167 | ACGGTCGG | -0.117
168 | TGATCGCA | -0.221
169 | GGTGCCGA | 0.0169
170 | CTAGAAAC | -0.03
171 | CCATGTAG | -0.0931
172 | AGCTCTCG | -0.0248
